# From PubChem BioAssay AID504832 (National Center for Advancing Translational Sciences (NCATS), 2011)
# Hit rate of the full screen: of about 310,000 compounds, about 18,000 (5.8%) were called active. This list was built around the results that the source calls inconclusive (neither active nor inactive); the mix of calls is not that of the screen. The call rests on the fitted dose curve; in most records, active means well fitted inhibition curve with a large enough effect; inconclusive means small, poorly fitted or top-dose-only effect, or another doubt; inactive means no such curve, though single readings can be large or run the other way. Potencies of inconclusive entries are left out as doubtful fits.
# Assay: Primary qHTS for delayed death inhibitors of the malarial parasite plastid, 48 hour incubation
# Details: P. falciparum luciferase growth in erythrocytes; series mostly up to 28.7 µM
# Method in brief: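 Read-out is firefly luciferase luminescence from an integrated reporter in P. falciparum, so falling signal marks reduced parasite growth. Infected erythrocytes were at 2% hematocrit and 0.1% parasitemia (final) in Albumax-supplemented RPMI 1640.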
# Potency means the concentration at half of the fitted maximal effect; tags describe the fitted curve by direction and shape.
row,SMILES,Potency
1,COc1ccc([N+](=O)[O-])cc1NC(=O)Cc1noc2ccc(C)cc12,"inconclusive [inhibitor, single point]"
2,COC(=O)c1sc(N)c(C(=O)OC)c1Cn1ncc(Cl)c(Cl)c1=O,active: 13.1 µM
3,Cc1ccccc1C1c2[nH]c3ccccc3c2CCN1CCCn1cccn1 (stereo not drawn),"inconclusive [inhibitor, single point]"
4,CCOCCCNC(=O)CNC(=S)N(Cc1ccc(C)cc1)Cc1ccco1,"inconclusive [inhibitor, partial curve, poor fit]"
5,Cn1c(Sc2ccc(Cl)cc2)c(C=O)c2ccccc21,active: 11.7 µM
6,CC(C)Cn1c(SC(C)C(=O)Nc2ccc3c(c2)OCCO3)nc2ccccc2c1=O (stereo not drawn),"inconclusive [inhibitor, partial curve, poor fit]"
7,CCOc1cc(C2C3=C(CCCC3=O)Nc3ccc4ncccc4c32)ccc1O (stereo not drawn),inactive
8,CCC(NC(=O)NC1CCCCC1)c1ccccc1 (stereo not drawn),inactive
9,COc1ccc(OC)c(C2=C/C(=C/c3ccccn3)C(=O)O2)c1,"inconclusive [inhibitor, single point]"
10,CC(C)c1ccc(C2NC(=S)NC3=C2C(=O)CCC3)cc1 (stereo not drawn),"inconclusive [inhibitor, partial curve]"
11,C#Cc1ccc([C@@H]2C=C(C(=O)N3CCOCC3)O[C@H](OCCCCO)C2)cc1,"inconclusive [inhibitor, partial curve, poor fit]"
12,CCOC(=O)C1CCCN(C(=O)c2sc3nc(-c4ccc(OC)cc4)cn3c2C)C1 (stereo not drawn),active: 13.1 µM
13,CCOc1ccc2oc(C(=O)N(CC)CC(=O)Nc3ccc(NC(C)=O)cc3)c(C)c2c1,"inconclusive [inhibitor, partial curve]"
14,COC(=O)C1=C(c2ccc(F)cc2OCc2ccccc2)C[C@@H]2CC[C@H]1N2C(=O)NCCOc1ccc(OC)cc1,"inconclusive [inhibitor, single point]"
15,COc1ccc(N=Nc2c(-c3ccc(OC)cc3)[nH]oc2=O)cc1,inactive
16,N#Cc1cnc2nc(SCc3ccccc3)nn2c1,inactive
17,O=C(N/N=C/c1ccc2nccnc2c1)c1ccncc1,inactive
18,COc1cc(O)c(CCC(=O)c2ccc(OC)c(OC)c2)c(OC)c1,inactive
19,O=C1CSC(=Nc2ccc(Cl)cc2)N1Cc1cccnc1,inactive
20,CCOC(=O)C1CCN(C(=O)COC(=O)C2CCN(S(=O)(=O)c3ccc(C)c(C)c3)CC2)CC1,inactive
21,COc1ccccc1NC(=S)NCCSc1ccc(Cl)cc1,inactive
22,COc1ccc2cc(C#N)c(N3CCN(C(=O)c4ccccc4C)CC3)nc2c1,"inconclusive [inhibitor, single point]"
23,CCOc1cc(NC(=S)NCc2ccccc2)c(OCC)cc1NC(=O)C(C)C,inactive
24,COc1cccc(OC)c1C(=O)Nc1cc2c(cc1N1CCOCC1)n(C)c(=O)n2C,active: 8.28 µM
25,O=C(Nc1ccc2c(c1)OCO2)c1ccc([N+](=O)[O-])cc1[N+](=O)[O-],inactive

row,SMILES,Potency
1,COc1ccc(NC(=S)N2CCN(S(=O)(=O)c3ccc(F)cc3)CC2)cc1,"inconclusive [inhibitor, partial curve, poor fit]"
2,CCOc1ccc(NC(=O)CN2CCN(CC(=O)Nc3ccc4c(c3)OCCO4)CC2)cc1,"inconclusive [inhibitor, partial curve]"
3,COc1ccc(S(=O)(=O)CC2(O)CCN(C(=O)CC(C)C)CC2)cc1,active: 9.28 µM
4,N/C(=N/O)c1nc(N2CCCCC2)nc(N2CCCCC2)n1,"inconclusive [inhibitor, single point]"
5,Cc1cccc(Nc2ncnc3c2cnn3C)c1,inactive
6,N#Cc1c2n(c(=S)n(-c3ccccc3)c1=O)CCCCC2,"inconclusive [inhibitor, partial curve]"
7,CCOC(=O)C1(CCc2ccccc2)CCN(Cc2c(O)cccc2OC)CC1,active: 0.262 µM
8,CCCCn1c(N)c(N(CCOC)C(=O)COC(=O)COc2cccc(C(C)=O)c2)c(=O)[nH]c1=O,"inconclusive [inhibitor, partial curve, poor fit]"
9,CCCC(=O)Nc1cccc(NC(=O)CN2CCN(c3ccccc3OC)CC2)c1,"inconclusive [inhibitor, partial curve]"
10,N=c1c(C(=O)NC2CCCCC2)cc2c(=O)n3ccccc3nc2n1Cc1ccccc1,"inconclusive [inhibitor, full curve]"
11,Cc1ccc(C)c(C(=O)COC(=O)c2ccccc2N2C(=O)C3C4CCC(C4)C3C2=O)c1 (stereo not drawn),"inconclusive [inhibitor, single point]"
12,CCc1ccc2nc(N=C(N)N)nc(C)c2c1,"inconclusive [inhibitor, partial curve]"
13,Cc1ccccc1N1CCN(C(=O)c2cc(C3CC3)nn2-c2ccccc2)CC1,"inconclusive [inhibitor, single point]"
14,c1ccc2c(c1)[nH]c1c(N3CCCC3)ncnc12,"inconclusive [inhibitor, single point]"
15,CSc1nccc(-c2sc(SC)c(C#N)c2-c2ccccc2)n1,"inconclusive [inhibitor, partial curve, poor fit]"
16,Cc1noc(C)c1-c1ccc2ncnc(NC(C)c3ccco3)c2c1 (stereo not drawn),"inconclusive [inhibitor, partial curve]"
17,COCCn1c(SCC(=O)Nc2cccnc2Cl)nc2ccccc2c1=O,inactive
18,O=C(Oc1ccccc1N1CCOCC1)c1sccc1Br,inactive
19,CCCC(c1nnnn1Cc1ccc(OC)cc1)N1CCN(c2ccccc2)CC1 (stereo not drawn),active: 13.1 µM
20,Cc1ccc(S(=O)(=O)N(C)c2ccc(C(=O)N(C)Cc3nc4ccccc4c(=O)[nH]3)cc2)cc1,active: 11.7 µM
21,COc1cc(C(=O)N2CCN(S(=O)(=O)c3ccc(C)cc3)CC2)ccc1OCc1c(C)noc1C,active: 4.15 µM
22,Nc1ccccc1C(=O)Nc1ccc(Cl)cc1Cl,inactive
23,Cc1ccc(S(=O)(=O)N(C)C)cc1NC(=O)COC(=O)c1ccc2c(=O)n3c(nc2c1)CCC3,"inconclusive [inhibitor, partial curve, poor fit]"
24,Cc1nn2c(NCCCN3CCOCC3)c3c(nc2c1-c1ccccc1)CCC3,"inconclusive [inhibitor, partial curve, poor fit]"
25,CC(C)N(C(=O)c1ccc(-c2ccccc2F)cc1)C(C)C,active: 10.4 µM

row,SMILES,Potency
1,COCCn1c(=O)[nH]c2cc(C(=O)NCCN3CCN(c4ccc(OC)cc4)CC3)ccc2c1=O,"inconclusive [inhibitor, single point]"
2,Cc1nn(CC(=O)NNC(=O)c2cccc(Br)c2)c(C)c1[N+](=O)[O-],inactive
3,O=C(Nc1ccccc1)OCCOc1ccc(Br)cc1,inactive
4,Cc1ccc(-c2csc3ncnc(N4CCN(C)CC4)c23)cc1C,"inconclusive [inhibitor, partial curve, poor fit]"
5,COCCOC(=O)c1c(C)oc2ccc(NS(=O)(=O)c3ccc(C)cc3)cc12,"inconclusive [inhibitor, single point]"
6,Cc1nc(N2CCN(C(=O)c3ccco3)CC2)c2c3c(sc2n1)CCC3,"inconclusive [inhibitor, single point]"
7,O=S(=O)(c1ccccc1)c1cccc(S(=O)(=O)N2CCCCC2)c1,inactive
8,COc1ccc(/C=C2\SC(=S)N(CCCC(=O)Nc3cccc(C(=O)O)c3)C2=O)cc1OC,"inconclusive [inhibitor, partial curve]"
9,CCCN(CC1CC1)C(=O)COc1ccccc1C(=O)NCc1ccccc1,"inconclusive [inhibitor, single point]"
10,CC(C)CC1C(C#N)=C(N)Oc2n[nH]c(-c3ccccc3)c21 (stereo not drawn),inactive
11,CCn1nc(C)cc1C(=O)N1CCCC(CCC(=O)NCc2ccccc2F)C1 (stereo not drawn),inactive
12,CCC(C)(C)NC(=O)C(c1ccccc1F)N(Cc1ccco1)C(=O)Cn1nnc2ccccc21 (stereo not drawn),"inconclusive [inhibitor, partial curve, poor fit]"
13,COc1ccc(OC)c(NC(=O)CCNS(=O)(=O)c2cccc3nonc23)c1,inactive
14,OC(CN1CCN(c2ccc(C(F)(F)F)cn2)CC1)c1ccccc1 (stereo not drawn),inactive
15,Nc1c(C(=O)NCc2ccco2)sc2nc(N3CCOCC3)c3c(c12)CCCC3,active: 9.28 µM
16,CC(=O)OCCCn1c(C)[n+](C)c2cc(Cl)c(Cl)cc21,active: 5.22 µM
17,O=C(CCNC(=O)c1ccc(Br)cc1)NCCCN1CCCC1=O,inactive
18,CCNc1nc(NC(C)C)nc(N(C#N)C(C)C(=O)N(C)C)n1 (stereo not drawn),"inconclusive [inhibitor, single point]"
19,O=C(O)c1ccccc1/C=N/N1CCN(C2c3ccccc3-c3ccccc32)CC1,"inconclusive [inhibitor, single point]"
20,CSc1ccccc1NC(=O)CN(C)C(=O)C1CCN(C(=O)Nc2ccccc2)CC1,"inconclusive [inhibitor, partial curve]"
21,CN(C)C(/C=C/Nc1ccc(Br)cc1)=C(C#N)C#N,inactive
22,COc1ccccc1NC(=O)Cn1c2ccccc2c2nc3n(c(=O)c21)CCS3,"inconclusive [inhibitor, partial curve, poor fit]"
23,CCOC(=O)N1CCC(N2Cc3cccc(C(=O)Nc4ccc(OCC)cc4)c3C2=O)CC1,"inconclusive [inhibitor, full curve, poor fit]"
